# Laboratory results as given in the antibiotic and cytotoxicity screens of Wong et al. (2023).
# The list shows a part of the results.
# Experiments:
# HSkMC = human skeletal muscle cells; assay: cytotoxicity call (relative viability < 0.9); settings: 10 µM
# HepG2 = assay: cytotoxicity call (relative viability < 0.9); settings: 10 µM
# S. aureus RN4220 = assay: growth inhibition call (relative growth <= 0.2); settings: 50 µM
Compound,cytotoxicity call (HSkMC),cytotoxicity call (HepG2),growth inhibition call (S. aureus RN4220)
CN1C(=O)c2cc(NC(=O)c3ccc(C(F)(F)F)cc3)ccc2OC[C@H]2O[C@H](CC(=O)NC3Cc4ccccc4C3)CC[C@@H]21,inactive,inactive,inactive
COc1ccc(S(=O)(=O)N(C)C[C@H]2Oc3ccc(NC(=O)Nc4cccc5ccccc45)cc3C(=O)N([C@H](C)CO)C[C@@H]2C)cc1,inactive,inactive,inactive
C[C@@H]1ON(c2ccc(C(=O)OC(C)(C)C)cc2)[C@H](c2ccc(O)cc2)[C@H]1C(=O)N1C(=O)OC[C@H]1Cc1ccccc1,inactive,inactive,inactive
COc1ccc(CN(C)C[C@@H]2OCCCC[C@@H](C)Oc3ccc(NS(=O)(=O)c4ccccc4)cc3C(=O)N([C@@H](C)CO)C[C@H]2C)cc1,inactive,inactive,inactive
C[C@@H]1CCCCO[C@H](CN(C)Cc2ccc(C(=O)Nc3ccccc3N)cc2)[C@@H](C)CN([C@H](C)CO)C(=O)c2cc(NS(=O)(=O)c3ccccc3)ccc2O1,inactive,inactive,inactive
Cc1noc(C)c1NC(=O)Nc1ccc2c(c1)C(=O)N([C@@H](C)CO)C[C@@H](C)[C@@H](CN(C)S(=O)(=O)c1ccc(Cl)cc1)OCCCC[C@H](C)O2,inactive,inactive,inactive
COc1ccc(S(=O)(=O)Nc2ccc3c(c2)C(=O)N([C@H](C)CO)C[C@H](C)[C@H](CN(C)Cc2ccc(Cl)c(Cl)c2)OCCCC[C@@H](C)O3)cc1,inactive,active,inactive
C[C@H](CO)N1C[C@H](C)[C@@H](CN(C)C(=O)Nc2ccccc2)Oc2ccc(NC(=O)Nc3cccc4ccccc34)cc2CC1=O,inactive,inactive,inactive
C[C@H]1CN([C@@H](C)CO)C(=O)c2cccc(NS(=O)(=O)c3cccs3)c2O[C@@H]1CN(C)S(=O)(=O)c1ccc(F)cc1,inactive,inactive,inactive
COc1ccc(S(=O)(=O)N(C)C[C@H]2Oc3ccc(N(C)C)cc3C(=O)N([C@@H](C)CO)C[C@@H]2C)cc1,inactive,inactive,inactive
COc1cccc(S(=O)(=O)N[C@H]2C=C[C@@H](CC(=O)NC3CCC3)O[C@H]2CO)c1,inactive,inactive,inactive
COc1ccc(NC(=O)Nc2ccc3c(c2)CC(=O)N([C@@H](C)CO)C[C@@H](C)[C@H](CN(C)S(=O)(=O)c2c(C)noc2C)O3)cc1,inactive,inactive,inactive
CC(C)Oc1ccc(S(=O)(=O)N2CCN(c3ccc(-c4ncco4)c(OCC(=O)O)c3)CC2)cc1,inactive,inactive,inactive
C[C@H](CO)N1C[C@H](C)[C@@H](CN(C)C(=O)Nc2cccc3ccccc23)Oc2c(NC(=O)Nc3cccc4ccccc34)cccc2C1=O,inactive,inactive,inactive
C[C@@H]1CCCCO[C@H](CN(C)C(=O)Nc2cccc3ccccc23)[C@H](C)CN([C@@H](C)CO)C(=O)c2cc(NC(=O)CCCN(C)C)ccc2O1,inactive,inactive,inactive
O=C(C[C@H]1CC[C@H]2[C@@H](COC[C@@H](O)CN2S(=O)(=O)c2ccc(Cl)cc2)O1)N[C@H]1CCN(Cc2ccccc2)C1,inactive,inactive,inactive
C[C@@H]1CN([C@@H](C)CO)S(=O)(=O)c2ccc(-c3ccc(F)cc3)cc2O[C@H]1CN(C)S(C)(=O)=O,inactive,inactive,inactive
COc1c(C)cnc2c1c(=O)n(CC#N)c(=O)n2C,inactive,inactive,inactive
CO[C@@H]1CN(C)C(=O)c2cc(NS(C)(=O)=O)ccc2OC[C@@H](C)N(C(=O)C2CCCCC2)C[C@@H]1C,inactive,inactive,inactive
C[C@@H](NC(=O)C[C@@H]1C=C[C@H](NC(=O)CN2CCOCC2)[C@@H](CO)O1)c1ccccc1,inactive,inactive,inactive
C[C@@H]1CCCCO[C@@H](CN(C)C(=O)Nc2ccccc2)[C@@H](C)CN([C@H](C)CO)C(=O)c2cc(NC(=O)Nc3ccc(C(F)(F)F)cc3)ccc2O1,inactive,active,inactive
Cn1cnc(S(=O)(=O)N[C@@H]2C=C[C@H](CC(=O)NCC3CC3)O[C@@H]2CO)c1,inactive,inactive,inactive
O=C(O)CCCCCCC(=O)Nc1ccc([C@@H]2O[C@@H](CSCCO)C[C@H](c3ccccc3)O2)cc1,inactive,inactive,inactive
COC(=O)CCc1c(c/2[nH]c1/C=C/1\N=C(/C=C/3\N=C(/C=C/4\N/C(=C2)[C@]2(C)[C@H](C(=O)OC)C(=CC=C42)C(=O)OC)C(=C3C=C)C)C(=C1CCC(=O)O)C)C,active,active,inactive
C[C@@H]1CN([C@H](C)CO)C(=O)c2cc(-c3ccncc3)cnc2O[C@@H]1CN(C)S(=O)(=O)c1ccccc1,inactive,inactive,inactive
C[C@@H]1CN([C@@H](C)CO)C(=O)c2cc(C#CCN(C)C)cnc2O[C@@H]1CN(C)S(C)(=O)=O,inactive,inactive,inactive
COC(=O)[C@H](Cc1ccc(-n2cc(-c3ccc(C(=O)NO)s3)nn2)cc1)N1CC2=C[C@H]([C@@H](O)Cc3ccccc3)n3c(=O)n(C)c(=O)n3[C@@H]2[C@@H](C2CC2)O1,inactive,inactive,inactive

Compound,cytotoxicity call (HSkMC),cytotoxicity call (HepG2),growth inhibition call (S. aureus RN4220)
O=C(O)C1CCN(c2ncccn2)CC1,inactive,inactive,inactive
O=c1cc(-c2ccccc2O)oc2cc(O)ccc12,inactive,inactive,inactive
C[C@@H]1CCCCO[C@@H](CN(C)C(=O)Nc2ccc(C(F)(F)F)cc2)[C@H](C)CN([C@@H](C)CO)C(=O)c2cc(NS(C)(=O)=O)ccc2O1,inactive,inactive,inactive
Cc1ccc(S[C@]2(C(=O)NCCCN(C)C)CC(=O)N(Cc3ccccc3C(F)(F)F)[C@@H]2c2ccc(CO)cc2I)cc1,inactive,inactive,inactive
C[C@H](CO)N1C[C@H](C)[C@@H](CN(C)Cc2ccc3c(c2)OCO3)Oc2ccc(NC(=O)CCN3CCOCC3)cc2CC1=O,inactive,inactive,inactive
C[C@H]1CN([C@@H](C)CO)S(=O)(=O)c2ccc(C#CC3CC3)cc2O[C@H]1CN(C)Cc1ccc(F)cc1,inactive,inactive,inactive
O=C(C[C@@H]1C[C@@H]2c3cc(NC(=O)c4ccc5c(c4)OCO5)ccc3O[C@@H]2[C@@H](CO)O1)NCc1ccccn1,inactive,inactive,inactive
COCC(=O)N1C[C@H](C)[C@H](OC)CN(C)C(=O)c2ccc(NC(=O)Nc3ccccc3)cc2OC[C@@H]1C,inactive,inactive,inactive
C[C@@H]1CCCCO[C@H](CN(C)S(=O)(=O)c2cccs2)[C@@H](C)CN([C@@H](C)CO)C(=O)c2cc(NC(=O)Nc3ccccc3)ccc2O1,inactive,inactive,inactive
CCC[C@H]1CN(S(=O)(=O)c2c(C)cc(C)c3nonc23)C[C@@H]1N,inactive,inactive,inactive
C[C@H](CO)N1C[C@H](C)[C@H](CN(C)Cc2ccc(-c3ccccc3)cc2)Oc2ccc(NS(=O)(=O)c3ccc(Cl)cc3)cc2C1=O,active,active,inactive
O=C(Cn1c(CO)c[nH]c1=S)NC1CC1,inactive,inactive,inactive
CO[C@H]1CN(C)C(=O)c2cc(NC(=O)c3ccccc3)ccc2OC[C@H](C)N(C(=O)CN(C)C)C[C@@H]1C,inactive,inactive,inactive
C[C@@H]1CN([C@H](C)CO)C(=O)c2cc(NC(=O)NC3CCCCC3)ccc2O[C@@H](C)CCCCO[C@@H]1CN(C)C(=O)c1ccncc1,inactive,inactive,inactive
C[C@@H]1CCCCO[C@H](CN(C)C(=O)C2CCCCC2)[C@@H](C)CN([C@H](C)CO)C(=O)c2cc(NS(=O)(=O)c3ccccc3)ccc2O1,inactive,inactive,inactive
C[C@H](CO)N1C[C@H](C)[C@H](CN(C)C(=O)Nc2ccc(C(F)(F)F)cc2)Oc2ccc(NC(=O)CCCCCC(=O)Nc3ccccc3N)cc2CC1=O,inactive,inactive,inactive
C[C@@H]1CN([C@@H](C)CO)S(=O)(=O)c2ccc(C#Cc3ccccc3)cc2O[C@@H]1CN(C)C(=O)CN(C)C,inactive,active,active
Cc1noc(C)c1S(=O)(=O)Nc1ccc2c(c1)C(=O)N([C@@H](C)CO)C[C@@H](C)[C@@H](CN(C)CC1CC1)O2,inactive,inactive,inactive
C[C@H]1CCCCO[C@H](CN(C)Cc2ccc(C(=O)O)cc2)[C@@H](C)CN([C@@H](C)CO)C(=O)c2cc(NS(=O)(=O)c3ccc(Cl)cc3)ccc2O1,inactive,inactive,inactive
C[C@H](CO)N1C[C@H](C)[C@@H](CN(C)S(=O)(=O)c2cn(C)cn2)OCCCC[C@H](C)Oc2ccc(NC(=O)Nc3cccc4ccccc34)cc2C1=O,inactive,inactive,inactive
Cc1cc(C)n([C@@H](C)CN)n1,inactive,inactive,inactive
Cc1cccc(S(=O)(=O)N2C[C@@H](O)COC[C@H]3O[C@@H](CC(=O)NCc4ccncn4)CC[C@@H]32)c1,inactive,inactive,inactive
COc1ccc(CN(C)C[C@H]2OCCCC[C@@H](C)Oc3ccc(NS(=O)(=O)c4ccc(C)cc4)cc3C(=O)N([C@H](C)CO)C[C@H]2C)cc1,inactive,inactive,inactive
CC12CCC(=O)C=C1CCC1C2CCC2(C)C1CCC2(O)C(=O)CO (configuration not stated),inactive,inactive,inactive
CC(C)(C)C1CCC(OC[C@@H](O)CN2CCC(CN3C(=O)c4cccc5cccc(c45)C3=O)CC2)CC1 (some centres not stated),active,active,active
C[C@@H]1CCCCO[C@H](CN(C)S(C)(=O)=O)[C@@H](C)CN([C@@H](C)CO)C(=O)c2cc(NC(=O)CCCN(C)C)ccc2O1,inactive,inactive,inactive
CCN1CC(CCN2CCOCC2)C(c2ccccc2)(c2ccccc2)C1=O.Cl (configuration not stated),inactive,inactive,inactive
